# Test results from PMC12136788.
# This is one part of the list.
# B1: chr2:217001844:217001845:+_ENSG00000079246_ENST00000392132|hu_hu|hu_hu_hu_mus_False|18_68 (ssRNA)
# RNA: GGGAGUUCUACAGUCCGACGAUCACCAACUUGAGGAUUAGAUCUUUUGUCAUAAGCAUAUCGGACGAUGGCCACCAUGUUUAACUCAUCCAAAGCAUGAACGAGAGAGGAAAGGGCAACUGCAGCUGCCUCAUCAUCCUUUGCCAACAGAGGAUUGAGCAUCA
# B2: chr4:142697793:142697794:-_ENSMUSG00000057637_ENSMUST00000105778|mus_mus|motif|central (ssRNA)
# RNA: GGGAGUUCUACAGUCCGACGAUCUAGGACAGACUGUGUCAGUGGGGUUGGCGACAGCCAUGAGUCCAUGCUUUCGAGGACGGACUGCAGGGUGCGUAGAAGGAGAAAAUUCCAGUUGAAGAAAUAAAAGAGGGGCACGCCAGACAACAGAGGAUUGAGCAUCA
# B3: chrX:140365796:140365797:-_ENSMUSG00000031285_ENSMUST00000033642|mus_mus|mus_mus_mus_hu_False|8_18 (ssRNA)
# RNA: GGGAGUUCUACAGUCCGACGAUCCUUCUCAUUACUCAGUGCCUGCAAGGUUCUGGUUCGGUAGAAGCUACAGUGGGCGCUGUGAGUGGGGCUAGGCAACCCAUUCAUCCGGGAGCCUCUCAUAUUUCUAGAUGCUUUAUCUCUCAACAGAGGAUUGAGCAUCA
# B4: chr5:92956547:92956548:-_ENSG00000113391_ENST00000395965|hu_mus|FALSE|FALSE (ssRNA)
# RNA: GGGAGUUCUACAGUCCGACGAUCCCGCUGAAGCCAUAUUGCUUUGACAGUUGCACUCAUCUAGAAAUAAUGCAAAACGCUAUUUAGACGGACACAUCACGACCCUGCGCUGGAGAAAGAAAGCAAUCUAAUGGGGGCCAGGAGCAACAGAGGAUUGAGCAUCA
# B5: 79327668_79327788_2640_ncRNA_ENSMUSG00000035835_ENSMUST00000166057|mouse|control|control (ssRNA)
# RNA: GGGAGUUCUACAGUCCGACGAUCCUGCCAGCCCGCCCACCUGGCGCCUUAGGGUGGAUUCUCUGCUGCCUGCACCUAGGGCCCCUUCACUUGCACCUGGUGGGGGCAGACCCUCCCCAGUGGCCAGGUUGACAGUGGCCACUGCAACAGAGGAUUGAGCAUCA
# B6: chr7:63234579:63234580:-_ENSMUSG00000047037_ENSMUST00000052204|mus_hu|motif|central (ssRNA)
# RNA: GGGAGUUCUACAGUCCGACGAUCCGUUUGGGCUGCAGAGGGCUGGCUGGGCCUCUGCUCUGGUGCUGAGCCAUGCUCCCCGCGGUCCACCAGACCACCUGUUACUAUCCAGUCAAUUCUAACACCAUGAUCGAGGACCUCUUCCAACAGAGGAUUGAGCAUCA
# B7: chr6:114270206:114270207:-_ENSG00000196591_ENST00000368632|hu_mus|FALSE|FALSE (ssRNA)
# RNA: GGGAGUUCUACAGUCCGACGAUCCACUACUUCUACACAUUUAGCAUGACCUUUGACAGUUAGAUUGAAACAACCAAGCCUGUCCCCAGACAGGGAGUCUGCGCCACACUGCAGCACCACCGCGCUAGGCUGGUACAUCUCCAUCAACAGAGGAUUGAGCAUCA
# B8: chr13:21172813:21172814:+_ENSG00000032742_ENST00000351808|hu_hu|motif|central (ssRNA)
# RNA: GGGAGUUCUACAGUCCGACGAUCGAUAUUUCCCAUAUUCAUUUUCAAUAUUCCUGCAUUGCUAAACAUCUUAUUUUUGACGGUAACUUGAUAAGUGUUAAGUGCUUCGGCAUACAUUUCAUUAACUGAAUACUGACUGGCCAACAACAGAGGAUUGAGCAUCA
# B9: chr17:56167648:56167649:+_ENSG00000264364_ENST00000579991|hu_mus|motif|central (ssRNA)
# RNA: GGGAGUUCUACAGUCCGACGAUCUGUUCUCACCCUCACAACAGGGAACAUAAAAGCCCACUUAGAACUAACUGCCCUCGGCUUCCCAUACACCCUAGAGAUUCCACUUAUCCUGCCCCUUCCCACCCUUCUACCCCAAACCCACAACAGAGGAUUGAGCAUCA
# B10: chr7:140404665:140404666:+_ENSG00000090266_ENST00000247866|hu_hu|hu_hu_hu_mus_False|58_58 (ssRNA)
# RNA: GGGAGUUCUACAGUCCGACGAUCUGCUCCUACUCGUCCAGAGAGUUUACAGUGUCAGUCCUCGUCAUCAGGAGGGAUACCUAAUUCUUCAUCUGUCCACUGUGAAGGAUCUGGAUAUGAAAAGUGACCCAGCACAGCAUCCGACAACAGAGGAUUGAGCAUCA
# B11: chr11:94154035:94154036:-_ENSMUSG00000020863_ENSMUST00000107820|mus_hu|FALSE|FALSE (ssRNA)
# RNA: GGGAGUUCUACAGUCCGACGAUCAUAUUUAAGUUUUUAAAGCAUAUGUCUCUGCCAAUGUACCAACACAAGAUGGACUUAAUACCAAAAAGAAAAAAAAAAACAGUUCAACCUUUUUAUUAAAAAAAAAAAAGAAAUGACAUCCAACAGAGGAUUGAGCAUCA
# B12: chr7:65617436:65617437:+_ENSG00000241258_ENST00000415001|hu_hu|FALSE|FALSE (ssRNA)
# RNA: GGGAGUUCUACAGUCCGACGAUCUUCUUCUCCCCAAGGCACAAAUAUUUCUUUUUAACUUAUUUUUGUGAUGUACCCAACUAACCACAAAGCCAGGCCUGCUGGGAUGAGGAUAAAAAUCAAAUAAACAAUCCUCUCAACGUCCAACAGAGGAUUGAGCAUCA
# B13: chr14:58718896:58718897:+_ENSG00000100567_ENST00000216455|hu_mus|motif|central (ssRNA)
# RNA: GGGAGUUCUACAGUCCGACGAUCUCGAUCAACAUUAAAAAGACGUUUAUUGGAGCCUUCUUCAUAAAGUUUAGAAAGGACGGGUUUUUCUACCCCAAACACAACACCAUCUUUACAUCUGAUCCCAAUAGCUGUACUACUGUUCAACAGAGGAUUGAGCAUCA
# B14: chr11:87793471:87793472:-_ENSMUSG00000020483_ENSMUST00000020775|mus_mus|mus_mus_mus_hu_False|28_108 (ssRNA)
# RNA: GGGAGUUCUACAGUCCGACGAUCUGGGGGCUGGGGAAAAAGAAUAAGCUGGAUCCCCCACCCCCCCACAUUGUCAACCCUACACGAGAGUUUUGAAGGCGACUCAUGAAUCAGCAGAGCUCAAACGGCAAUGACCACCCCACCCAACAGAGGAUUGAGCAUCA
# Molecular target: T1, UNK ZnF1-3 (human, UniProt Q9C0B0 31-174)
# T1 sequence: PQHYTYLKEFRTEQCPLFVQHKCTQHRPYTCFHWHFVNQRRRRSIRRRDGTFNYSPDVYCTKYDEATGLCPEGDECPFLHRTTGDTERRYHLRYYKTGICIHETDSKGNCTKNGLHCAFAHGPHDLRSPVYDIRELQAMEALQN
# Test: nsRBNS (natural sequence RNA bind-n-seq); RBNS binding buffer (assumed for nsRBNS): 25 mM Tris pH 7.5, 150 mM KCl, 3 mM MgCl2, 0.01% Triton X-100, 500 ug/ml BSA, 20 U/ml SUPERase-In, 4 C; UNK is unkempt and MSI1 is Musashi-1; names of the RNAs are library labels; protein concentration not given here; high values mean tight binding
row,Binder,binding signal [enrichment R]
1,B1,1.6
2,B2,1.62
3,B3,0.673
4,B4,1.3
5,B5,0.792
6,B6,0.525
7,B7,1.17
8,B8,0.999
9,B9,2.11
10,B10,1.06
11,B11,2.44
12,B12,1.95
13,B13,0.888
14,B14,1.03
